Laboratory results: PubChem BioAssay (NCATS)
“And” between values parts separate entries of the source, which are not always exact repeats. Equal entries are not always repeated. The shares of active, inactive and inconclusive entries below differ from those in the screen. No potency is given beside an inconclusive call; the fits are too rough. The source made the active and inactive calls. The call rests on the fitted dose curve; in most records, active means well fitted cell-killing curve with a large enough effect; inconclusive means small, poorly fitted or top-dose-only effect, or effect the other way; inactive means no such curve, though single readings can be large or run the other way.

Assay: qHTS assay to identify small molecule inhibitors of chordoma cells - UCH-1 (AID 1259355); further: nearly all actives have a fitted effect of over 55% in size
Settings: UCH-1 chordoma viability, CellTiter-Glo, 48 h, combination; series mostly up to 46.1 µM; activity, negative = inhibition: at the top concentration
Source text: NIH Chemical Genomics Center [NCGC]
Chordoma is a rare and slow growing tumor that can occur anywhere along the spine, from the base of the skull to the tailbone. Current treatment options for chordoma is surgery and radiation therapy for those who are not candidates for surgery. But chordomas tend to return in the same location or surrounding areas of the original tumor after surgery and/or radiation. Chemotherapy can slow down the progression of the tumor. As chordoma is slow growing, the general cytotoxic agents that kill fast growing cells are ineffective, and some patients have been reported to respond to molecularly targeted drugs.
NCATS Pharmaceutical Collection (NPC) containing approximately 3000 clinically approved and investigational drugs were used to screen at 15 concentrations in a chordoma cell lines, UCH-1, to identify small molecule compounds that can inhibit chordoma cell growth.
NCGC Assay Protocol Summary:
Human chordoma cell line UCH-1 was dispensed at 800 per well in 4uL of culture medium into white solid bottom 1536-well plates (Corning Life Sciences, Corning, NY) using a Multidrop Combi (Thermo Scientific, Waltham, MA) dispenser. The assay plates were incubated at 37 C and 5% CO2 for an overnight, and then 23nL of compounds dissolved in DMSO and positive control were transferred using a Pintool station (Wako, San Diego, CA). Compound treatment was followed by the addition of 1uL of the combination compounds (1uM Auranofin, 500nM each of Camptothecin, Doxorubicin, Rubitecan, and Topotecan) and assay medium to each well of the assay plates using Flying Reagent Dispenser (FRD, Aurora Discovery, San Diego, CA). The assay plates were incubated at 37 C and 5% CO2 for 48hr. Then 5uL of CellTiter-Glo reagent (Promega Corporation, Madison, WI) was added to each well of the assay plates using FRD. After 30min incubation at room temperature, the luminescence signal was quantified using a ViewLux plate reader (PerkinElmer, Shelton, CT).
On the % scale 0 is the no-effect control and ±100 the full control effect; potency means the concentration at half of the fitted maximal effect; tags describe the fitted curve by direction and shape.

Structure (SMILES) | activity, negative = inhibition | Potency
Cc1ncsc1CCCl | inactive: 2.17% | –
CN1C[C@H](C(=O)N[C@]2(C)O[C@@]3(O)[C@@H]4CCCN4C(=O)[C@H](Cc4ccccc4)N3C2=O)C=C2c3cccc4[nH]cc(c34)C[C@H]21 | – | inconclusive [cytotoxic, full curve, poor fit]
O=C(O)CCCc1ccc(N(CCCl)CCCl)cc1 | inactive: 10.5% | –
CO[C@H]1[C@@H](O)C[C@H](O[C@H]2[C@@H](O)C[C@H](O[C@H]3[C@@H](O)C[C@H](O[C@H]4CC[C@@]5(C)[C@H](CC[C@@H]6[C@@H]5C[C@@H](O)[C@]5(C)[C@@H](C7=CC(=O)OC7)CC[C@]65O)C4)O[C@@H]3C)O[C@@H]2C)O[C@@H]1C | – | active: 0.355 µM [with auranofin plus four topoisomerase inhibitors]
Oc1cc[c]([Hg][Cl])cc1 | – | inconclusive [cytotoxic, partial curve, poor fit] [with auranofin plus four topoisomerase inhibitors]
O=C1CCCCC1CN1CCCCC1 (stereo not given) | inactive: -2.87% | –
c1ccc2c(c1)OCC(C1=NCCN1)O2 (stereo not given) | – | active: 31.6 µM
C[C@]12C=CC(=O)C=C1CC[C@@H]1[C@@H]2CC[C@@]2(C)[C@H]1CC[C@]2(C)O | inactive: 8.61% | –
[H+].[H+].[Hg+2].[O-]B([O-])[O-].[c-]1ccccc1 | – | active: 8.91 µM
O=C1CCO1 | – | inconclusive [cytotoxic, full curve, poor fit] [with auranofin plus four topoisomerase inhibitors]
CCOc1ccc2c3c1O[C@H]1[C@@H](O)C=C[C@H]4[C@@H](C2)N(C)CC[C@@]341 | inactive: -7.7% | –
C=C(C)[C@H]1Cc2c(ccc3c2O[C@@H]2COc4cc(OC)c(OC)cc4[C@@H]2C3=O)O1 | – | inconclusive [cytotoxic, partial curve, poor fit]
O=CC=O | – | inconclusive [cytotoxic, partial curve, poor fit] [with auranofin plus four topoisomerase inhibitors]
C=C[C@H]1CN2CC[C@H]1C[C@@H]2[C@@H](O)c1ccnc2ccccc12 | – | inconclusive [cytotoxic, single point]
CC(NC(C)(C)C)C(=O)c1cccc(Cl)c1 (stereo not given) | inactive: 8.71% | –
COP(=S)(OC)Oc1ccc(S(=O)(=O)N(C)C)cc1 | – | inconclusive [cytotoxic, full curve, poor fit]
CC(Cc1ccccc1)NC=O (stereo not given) | inactive: -0.408% [at 46.1 µM, with auranofin plus four topoisomerase inhibitors] | –
C[C@]12CC[C@H](O)C[C@H]1CC[C@@H]1[C@@H]2CC[C@]2(C)[C@@H](c3ccc(=O)oc3)C[C@H]3O[C@]132 | – | active: 6.31 µM [with auranofin plus four topoisomerase inhibitors]
O=[N+]([O-])C(Br)(CO)CO | – | inconclusive [rising, partial curve, poor fit]
O=c1[nH]c(=O)n(Cl)c(=O)n1Cl | inactive: 3.48% [at 46.1 µM, with auranofin plus four topoisomerase inhibitors] | –

Structure (SMILES) | activity, negative = inhibition | Potency
CC(C)(O)C1C2OC(=O)C1C1(O)CC3OC34C(=O)OC2C14C (stereo not given) | inactive: -4.74% [at 46.1 µM, with auranofin plus four topoisomerase inhibitors] | –
C[C@H]1O[C@@H](O[C@H]2[C@@H](O)C[C@H](O[C@H]3[C@@H](O)C[C@H](O[C@H]4CC[C@@]5(C)[C@H](CC[C@@H]6[C@@H]5CC[C@]5(C)[C@@H](C7=CC(=O)OC7)CC[C@]65O)C4)O[C@@H]3C)O[C@@H]2C)C[C@H](O)[C@@H]1O | – | active: 0.112 µM
C[C@]12CC[C@@H]3c4ccc(OC(=O)N(CCCl)CCCl)cc4CC[C@H]3[C@@H]1CC[C@@H]2O | inactive: -8.23% | –
O=C1Nc2ccc(Cl)cc2C(c2ccccc2Cl)=NC1O (stereo not given) | inactive: 12.3% | –
Clc1ccc(Cl)cc1 | inactive: -29.2% [at 46.1 µM, with auranofin plus four topoisomerase inhibitors] | –
CN1c2ccccc2C(NCCCCCCC(=O)O)c2ccc(Cl)cc2S1(=O)=O (stereo not given) | inactive: -5.39% | –
CC(=O)O[C@H]1C[C@H](O[C@H]2[C@@H](O)C[C@H](O[C@H]3[C@@H](O)C[C@H](OC4CC[C@@]5(C)[C@H](CC[C@@H]6[C@@H]5CC[C@]5(C)[C@@H](C7=CC(=O)OC7)CC[C@]65O)C4)O[C@@H]3C)O[C@@H]2C)O[C@H](C)[C@H]1O[C@@H]1O[C@H](CO)[C@@H](O)[C@H](O)[C@H]1O (stereo not given in full) | – | active: 0.447 µM
CN1C(=O)CN=C(c2ccccc2)c2cc([N+](=O)[O-])ccc21 | – | inconclusive [cytotoxic, full curve, poor fit]
Oc1cccc[c]1[Hg][Cl] | – | active: 15.8 µM [with auranofin plus four topoisomerase inhibitors]
OC(O)C(Cl)(Cl)Cl | – | inconclusive [cytotoxic, full curve, poor fit]
CCCCCCCCCCCCCCCC[N+](C)(C)C | – | inconclusive [cytotoxic, full curve, poor fit]
CC(C)NCC(O)c1ccccc1Cl (stereo not given) | inactive: -11.6% | –
CC(CCc1ccccc1)NC(C)C(O)c1ccc(O)cc1 (stereo not given) | – | inconclusive [cytotoxic, single point]
COC(COC(N)=O)C1=C(N2CC2)C(=O)C(C)=C(N2CC2)C1=O (stereo not given) | – | active: 2.24 µM
ClC1C(Cl)C(Cl)C(Cl)C(Cl)C1Cl (stereo not given) | inactive: -14% | –
CNC(=O)NC(O)C(Cl)(Cl)Cl (stereo not given) | inactive: -6.39% | –
Cc1nnc2n1-c1ccc(Cl)cc1C(c1ccccc1Cl)=NC2 | inactive: -18.5% | –
NC(=O)CN1CCCC1=O | – | inconclusive [cytotoxic, partial curve, poor fit]
CCCCCCCCCC[N+](C)(C)CCCCCCCCCC | – | inconclusive [cytotoxic, partial curve, poor fit] [with auranofin plus four topoisomerase inhibitors]
C[C@@H]1O[C@@H](O[C@H]2C[C@@H](O)[C@]3(CO)[C@H]4[C@H](O)C[C@]5(C)[C@@H](C6=CC(=O)OC6)CC[C@]5(O)[C@@H]4CC[C@]3(O)C2)[C@H](O)[C@H](O)[C@H]1O | – | active: 158 nM and active: 63.1 nM
